Laboratory results as given in the RNAGym collection of RNA variant scans (doi:10.1073/pnas.2313332121).
This sample is rich in variants without activity.

B1: TPR 5TU (parent)
chain: GGAUCUUCUCGAUCUAACAAAAAAGACAAAUCUGCCACAAAGCUUGAGAGCAUCUUCGGAUGCAGAGGCGGCAGCCUUCGGUGGCGCGAUAGCGCCAACGUUCUCAACUAUGACACGCAAAACGCGUGCUCCGUUGAAUGGAGUUUAUCAUG

Variants of: B1
Assay: polymerase ribozyme fitness, log enrichment relative to wild type (log ratio); higher = more active; in vitro selection for triplet polymerase activity
Method in brief: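 Libraries of mutants in each subunit of a heterodimeric triplet polymerase ribozyme were generated by PCR and transcribed. In triplicate, each went through one in vitro selection round: annealing with biotinylated primer, partner subunit and triplets; frozen incubation at −7 °C; gel excision of extended constructs; streptavidin-bead capture; RT-PCR. Fitness, taken from Illumina sequencing of input and output libraries, is the logarithm of a genotype's enrichment over wild-type enrichment, averaged across replicates with inverse-variance weights. The logarithm is base 2, and genotypes needed ≥10 input reads and ≥1 read per output to be kept.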

Variant | polymerase ribozyme fitness (log ratio)
C10U A40G C75U A89C C95U C99A | ≤ -4.2
C10U A41C G92A C99G U144A | ≤ -4.2
C10U A41U G92C U139G | -4.06
C10U A49C C95U C105U A120C U148A | ≤ -4.2
C10U A52C C87U G88A A122U C123G | ≤ -4.2
C10U A64U G65A G71A G74U G84A C93G | ≤ -4.2
C10U A73C C85A | ≤ -4.2
C10U A91U C96A A98U A142G U151C | ≤ -4.2
C10U C14G A19U A30U A47G C87G C93A A150U | ≤ -4.2
C10U C14G A28U C57U A60G G94C U148C | ≤ -4.2
C10U C14G A39C A91G C95G C99U C105G A137G | ≤ -4.2
C10U C14U A23U C43U G46C C79A C87G C125A | ≤ -4.2
C10U C27U U102G C129A A137U | ≤ -4.2
C10U C32G U145C | -4.16
C10U C32U A49C U134C | ≤ -4.2
C10U C32U G92A G94A C149A | ≤ -4.2
C10U C35A A60G U78G G94U A107G A121U G140C G143C U146G | ≤ -4.2
C10U C35G G58A A91U A119C U139A G143U U148G | ≤ -4.2
C10U C35U A47C C85A A89C C93U C95U | ≤ -4.2
C10U C36U G81A C95A U146A | ≤ -4.2
C10U C38U G80A G94C C125A G143A | ≤ -4.2
C10U C43U C63U C69U C76A G94U C103A | ≤ -4.2
C10U C51G U53A U90G | ≤ -4.2
C10U C63U G71A C87U G152A | ≤ -4.2

Variant | polymerase ribozyme fitness (log ratio)
C10U C76A G88U C95G A98G C129A | ≤ -4.2
C10U C76G G83C G88U A119C | ≤ -4.2
C10U C85A | -3.35
C10U C87U A115C U145G | ≤ -4.2
C10U C93A | -3.86
C10U C118U | -2.81
C10U G34U G50A A66C G133C | ≤ -4.2
C10U G42A A49G G50C G86U A98U G140C | ≤ -4.2
C10U G42C C69A | ≤ -4.2
C10U G42U A64U C93A A106U C123U G140A | ≤ -4.2
C10U G46A G67U C79G U102G C105A U127A | ≤ -4.2
C10U G50C C51U C54G C87U | ≤ -4.2
C10U G50U C51G C93U C114U | ≤ -4.2
C10U G58U C69U U77G C85U U151C | ≤ -4.2
C10U G74C G88C A110G | ≤ -4.2
C10U G88U | ≤ -4.2
C10U G92A G141C | -3.99
C10U G124C U139G U148C | ≤ -4.2
C10U U13C A17U C76A C105U | ≤ -4.2
C10U U13C C75G C93A A113U A142G | ≤ -4.2
C10U U13G C69U C103A G152U | ≤ -4.2
C10U U15C A29U C95U | ≤ -4.2
C10U U31G U56A C85G C95U U144A U146C | ≤ -4.2
C10U U33A C69G C87A A98U U134A U148G | ≤ -4.2

Variant | polymerase ribozyme fitness (log ratio)
C10U U33C G58C G84U G86A A97U | ≤ -4.2
C10U U45A G88C U109G | ≤ -4.2
C10U U45A U53A C54A C85G U144G | ≤ -4.2
C10U U77C C85G A89G A120C | ≤ -4.2
C10U U134G | ≤ -4.2
G11A A12G A52U G59A A60C | ≤ -4.2
G11A A16C A21G C36A U53A G70A A98U A138G A150U | ≤ -4.2
G11A A16U A24U C85A A142C | ≤ -4.2
G11A A17G C43U G94U A122G G141U | ≤ -4.2
G11A A17G U31A U53G C54U A64G | ≤ -4.2
G11A A19U U56G U82C G84U C95U | ≤ -4.2
G11A A20U C87G C118U A150G | ≤ -4.2
G11A A21G C87A G92A A121C G136A U148C | ≤ -4.2
G11A A21G G71U G84U A138U U151A | ≤ -4.2
G11A A23U A39U U53G C54U C93U A122U A142G | ≤ -4.2
G11A A24G G83C | ≤ -4.2
G11A A28C C69G A91U C95G | ≤ -4.2
G11A A28U C32U A47U C79A | ≤ -4.2
G11A A30C U31C G48A U56A U90G G92A G117U G140C U148A | ≤ -4.2
G11A A37C A52C U55A G83C | ≤ -4.2
G11A A37C U56G G83A U145G | -3.73
G11A A37U C79U G83A A106U | ≤ -4.2
G11A A39C A52U C72U G86C C108A G124U U144A | ≤ -4.2
G11A A40C A49C G74C C85A C95G G100C A147U | ≤ -4.2

Variant | polymerase ribozyme fitness (log ratio)
G11A A40U C69U C118G C129A A142G | ≤ -4.2
G11A A49C G86U A137G | ≤ -4.2
G11A C14A U15G A16C A17C G42U C96U C131A G143A | ≤ -4.2
G11A C14G A30U U44A U45A G92U | ≤ -4.2
G11A C14G A73U G84U A110C C118U | ≤ -4.2
G11A C32U G71A A137G A138G | ≤ -4.2
G11A C35U A40C A73C A91U U144G | ≤ -4.2
G11A C38A A40G | -4.14
G11A C43G U90C G94A | -4.13
G11A C51G C57A C85U A89G A106U C118A A119G | ≤ -4.2
G11A C54U A60C C75G A113U U135A A137G | ≤ -4.2
G11A C54U U55A G74A A89G G92C C105G G112A U144G | ≤ -4.2
G11A C75G C93U | ≤ -4.2
G11A C85A C114U | ≤ -4.2
G11A C85U U109C C114U | ≤ -4.2
G11A C96A A97G G126U G140U | ≤ -4.2
G11A G25C C35G C75G C79U C93G A121U G133U | ≤ -4.2
G11A G34A A41U U55G A106C | ≤ -4.2
G11A G48C G92U | -0.981
G11A G50U C72U C96U U104C C125G G141A | ≤ -4.2
G11A G59A C75A G84U G94A A98C C114U C116A | ≤ -4.2
G11A G59A U77G C79U A89C G126A | ≤ -4.2
G11A G59C C85G A89U C105U | ≤ -4.2
G11A U15G C54U A60U G81C A107G | ≤ -4.2

Variant | polymerase ribozyme fitness (log ratio)
G11A U45A A66C C76A G88C G92C A121G G128C | ≤ -4.2
G11A U53G C63U G88C G117A | ≤ -4.2
G11A U56A A73G G80A C87A | ≤ -4.2
G11A U56G C79U C93A U109C G141C | ≤ -4.2
G11A U61A U82G G84C | ≤ -4.2
G11A U104A A119U G136A U144A | -2.19
G11A U134A | -3.6
G11C A12U C14A A28G A52C G62C U78A G112C | ≤ -4.2
G11C A16U A40C G80A C114U | ≤ -4.2
G11C A16U C32G C36U G65U G71C G86U U90A U104A U109G U144C | ≤ -4.2
G11C A17C A52C C85U A115G C125U C132U | ≤ -4.2
G11C A17U G46C C87G A142U | ≤ -4.2
G11C A19U A20U A29U G71A C96U C99U A113U C129A | ≤ -4.2
G11C A20U C36U A60G C93G | ≤ -4.2
G11C A20U G48U U53G A73C G86A C116U | ≤ -4.2
G11C A20U G86C C99G G136C U145G A147C | ≤ -4.2
G11C A23G A91G C95U A121G | -3.82
G11C A28G C36A G74C U145A | ≤ -4.2
G11C A28U A40G G81U A89U C95U G141C | ≤ -4.2
G11C A29G A40U C76U C87U | ≤ -4.2
G11C A30U C87G G143U | ≤ -4.2
G11C A37U U55A A60C G68C G80A G92U G94C U148A | ≤ -4.2
G11C A40C G83U A119G | -2.65
G11C A40G G84A A97C G126A | ≤ -4.2

Variant | polymerase ribozyme fitness (log ratio)
G11C A49C A52C U56A G59C C85U | ≤ -4.2
G11C A52C G84C C85G G88A | ≤ -4.2
G11C A52C G94C U101A | ≤ -4.2
G11C A115C | -2.86
G11C C14G A21G C93A C129A A142U | ≤ -4.2
G11C C18G A24C A47G G68C G84A U104C G133U | ≤ -4.2
G11C C18U A22G U44G A60G G68C G84C | ≤ -4.2
G11C C32G A49C G86A G88U G133A | ≤ -4.2
G11C C35G C75G A91G C118U | ≤ -4.2
G11C C35U A49C C96U | ≤ -4.2
G11C C36U C57A G100A | ≤ -4.2
G11C C36U U78C C85G A120C C123A G124A U151C | ≤ -4.2
G11C C75G U77G C85U U90C | ≤ -4.2
G11C C93U A137C | ≤ -4.2
G11C C93U G136U | ≤ -4.2
G11C C96G G100C U101G A110C A138U | ≤ -4.2
G11C G25C A28G C36G C75U C96U A115U A122U | -3.98
G11C G25C C35U A41U C63A G68A C87G G143C | ≤ -4.2
G11C G46C C57U C85U | -3.93
G11C G50A G92U G143A | -4.01
G11C G62A C87G | ≤ -4.2
G11C G83A G141U | -0.379
G11C U15A C87A C103G A106G C118U U146C | ≤ -4.2
G11C U53A A91G C95U A97U U130G | ≤ -4.2

Variant | polymerase ribozyme fitness (log ratio)
G11C U53A G58C A73U C95A | ≤ -4.2
G11C U55G U109C U145A | ≤ -4.2
G11U A12C A17C A22U A41G A73G U78A G92A A97G | ≤ -4.2
G11U A12G A40C A73G C87G C96A C118U A138C | ≤ -4.2
G11U A16C U31G G59U A91G C95G C125U G128U | ≤ -4.2
G11U A17C U55A C116A A121U C125U A142U | ≤ -4.2
G11U A17G C57U C63U G81A U82G | -1.64
G11U A17U A24U A28C A89C A91U G94U C99A U101A C118U A137C | ≤ -4.2
G11U A19C G34A U61A U78G G94A C95U U144C | ≤ -4.2
G11U A19C U55A G71A A91C G100A U109G A122U | ≤ -4.2
G11U A20G A30U G50C G84U A120U | ≤ -4.2
G11U A21U A30C G88C | ≤ -4.2
G11U A22G C54U G65A C76U A98U C103G U144G | ≤ -4.2
G11U A22U C35G C57A U61A A113G | ≤ -4.2
G11U A23C U53A C96U G152A | ≤ -4.2
G11U A23U | ≤ -4.2
G11U A23U C57U G86A | ≤ -4.2
G11U A24U C72U C85U U90A | ≤ -4.2
G11U A26C A28U G50A A66U C149G | ≤ -4.2
G11U A26G A30G A73U C99U A137C G141C | ≤ -4.2
G11U A26U G83A | -4.06
G11U A40U G42C G84C G100U A107U U134G | ≤ -4.2
G11U A40U U55G C95U C105G C116G | ≤ -4.2
